# From a collection of fitness landscapes (doi:10.1016/j.celrep.2020.107928)
# In all, about 81,000 sequences were measured (“one-hybrid fitness for binding parS DNA”: median about -0.17, highest 2% from about 0.51 on). The list shows a part of the results.
# B1: Caulobacter ParB omega fusion; a variant is named by its letters at X, in order, B8GW30 (parent)
# chain: MESVVVGEPGMSEGRRGLGRGLSALLGEVDAAPAQAPGEQLGGSREAPIEILQRNPDQPRRTFREEDLEDLSNSIREKGVLQPILVRPSPDTAGEYQIVAGERAWRAAQRAGLKTVPIMVRELDDLAVLEIGIIENVQRADLNVLEEALSYKVLMEKFERTQENIAQTIGKSXSHVANXMRLLXLPDEVQSYLVSGELTAXHARAIAAAADPVALAKQIIEGGLSVRETEALARKAPNLSAGKSKGGRPPRVKDTDTQALESDLSSVLGLDVSIDHRGSTGTLTITYATLEQLDDLCNRLTRGI
# Variants of: B1
# Experiment: one-hybrid fitness for binding parS DNA (scaled: cognate 1, non-cognate 0); higher = stronger binding
# Details: with parS DNA site
# Procedure, shortened: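 On M9-minus-histidine containing 0.1 mM IPTG and 5 mM 3-AT, E. coli USO cells with a HIS3 reporter, site 19 bp from the promoter, grew 48 hours at 37°C to select Caulobacter ParB libraries randomised at four specificity codons. Plasmids from before and after were Illumina-sequenced, with three replicate libraries pooled and variants under 10 reads left out. Fitness is the log change in variant-to-wild-type read ratio, rescaled against cognate and non-cognate.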
row,Variant,one-hybrid fitness for binding parS DNA
1,QKLL,≤ 0.2
2,RNIF,≤ 0.2
3,LRLR,≤ 0.2
4,RRWE,≤ 0.2
5,NEYN,≤ 0.2
6,RIFG,0.978
7,PTFC,≤ 0.2
8,QLQF,≤ 0.2
9,SRPK,≤ 0.2
10,VHAL,≤ 0.2
11,ELML,≤ 0.2
12,HGRV,≤ 0.2
13,PMPC,≤ 0.2
14,THCC,≤ 0.2
15,TGLD,≤ 0.2
16,QFGC,≤ 0.2
17,SRKG,≤ 0.2
18,MLQG,≤ 0.2
19,GRKT,≤ 0.2
20,CGSC,≤ 0.2
21,RAVM,0.25
22,GHKA,≤ 0.2
23,YEPM,≤ 0.2
24,GVCS,≤ 0.2

row,Variant,one-hybrid fitness for binding parS DNA
1,TMLK,≤ 0.2
2,AKHY,≤ 0.2
3,QSYY,≤ 0.2
4,LMMS,≤ 0.2
5,QFKL,≤ 0.2
6,HVRK,≤ 0.2
7,WITR,≤ 0.2
8,QDHV,≤ 0.2
9,CPAE,≤ 0.2
10,LMEF,≤ 0.2
11,RLTG,1.03
12,RLFI,≤ 0.2
13,WHYG,≤ 0.2
14,LFPR,≤ 0.2
15,YTFA,≤ 0.2
16,PNSG,≤ 0.2
17,PPAT,≤ 0.2
18,NCAA,≤ 0.2
19,PYKG,≤ 0.2
20,RGRS,0.932
21,HQPM,≤ 0.2
22,FYAL,≤ 0.2
23,SDLL,≤ 0.2
24,QVNV,≤ 0.2

row,Variant,one-hybrid fitness for binding parS DNA
1,AYAC,≤ 0.2
2,GMSC,≤ 0.2
3,RNCT,0.612
4,DGTC,≤ 0.2
5,TLGD,≤ 0.2
6,GGRL,≤ 0.2
7,TWYF,≤ 0.2
8,QTHN,≤ 0.2
9,HPFG,≤ 0.2
10,HSNS,≤ 0.2
11,WTDK,≤ 0.2
12,RCEP,≤ 0.2
13,SVVV,≤ 0.2
14,TLIL,≤ 0.2
15,THRP,≤ 0.2
16,KTKA,≤ 0.2
17,HPLY,≤ 0.2
18,ATRL,≤ 0.2
19,KVHG,≤ 0.2
20,QSPR,≤ 0.2
21,RCCD,≤ 0.2
22,REKS,0.66
23,THHK,≤ 0.2
24,MDQS,≤ 0.2

row,Variant,one-hybrid fitness for binding parS DNA
1,TKMG,≤ 0.2
2,SRKY,≤ 0.2
3,CVRA,≤ 0.2
4,CVDQ,≤ 0.2
5,KDTG,≤ 0.2
6,QYQT,0.26
7,GKHY,≤ 0.2
8,SYRW,≤ 0.2
9,RNKF,0.242
10,YMWS,≤ 0.2
11,MCPA,≤ 0.2
12,PSVR,≤ 0.2
13,CVSN,≤ 0.2
14,RCTL,≤ 0.2
15,CWNE,≤ 0.2
16,EIAH,≤ 0.2
17,PKVG,≤ 0.2
18,KRPL,≤ 0.2
19,IKIG,≤ 0.2
20,YAIR,≤ 0.2
21,NDHF,≤ 0.2
22,IVRT,≤ 0.2
23,WDLG,≤ 0.2
24,GQYA,≤ 0.2

row,Variant,one-hybrid fitness for binding parS DNA
1,HQCS,≤ 0.2
2,INKE,≤ 0.2
3,THMI,≤ 0.2
4,CRLW,≤ 0.2
5,RDDS,≤ 0.2
6,NPRL,≤ 0.2
7,HEAY,≤ 0.2
8,GVHD,≤ 0.2
9,NPDE,≤ 0.2
10,HHSN,≤ 0.2
11,KKKW,≤ 0.2
12,EVSS,≤ 0.2
13,NTIC,≤ 0.2
14,NLHR,≤ 0.2
15,CHET,≤ 0.2
16,GPRY,≤ 0.2
17,ERKS,≤ 0.2
18,SFSP,≤ 0.2
19,AVLC,≤ 0.2
20,KRQT,≤ 0.2
21,YLPQ,≤ 0.2
22,SEPE,≤ 0.2
23,LTLN,≤ 0.2
24,VGRS,≤ 0.2

row,Variant,one-hybrid fitness for binding parS DNA
1,RDTE,≤ 0.2
2,VHCW,≤ 0.2
3,TTGW,≤ 0.2
4,QVGI,≤ 0.2
5,ADDY,≤ 0.2
6,NDQM,≤ 0.2
7,MSLQ,≤ 0.2
8,IKAG,≤ 0.2
9,NVHC,≤ 0.2
10,LKLM,≤ 0.2
11,RKNK,≤ 0.2
12,IVTV,≤ 0.2
13,KPPR,≤ 0.2
14,QYFT,≤ 0.2
15,FMEL,≤ 0.2
16,MLLT,≤ 0.2
17,MAHK,≤ 0.2
18,SKSM,≤ 0.2
19,KIRE,≤ 0.2
20,SHRI,≤ 0.2
21,SLLS,≤ 0.2
22,WHKR,≤ 0.2
23,MRSP,≤ 0.2
24,TEFE,≤ 0.2

row,Variant,one-hybrid fitness for binding parS DNA
1,SMSQ,≤ 0.2
2,AMFT,≤ 0.2
3,HNRS,≤ 0.2
4,MYVS,≤ 0.2
5,FWRT,≤ 0.2
6,QWKY,≤ 0.2
7,LTLE,≤ 0.2
8,PHFL,≤ 0.2
9,KTQE,≤ 0.2
10,HNLP,≤ 0.2
11,KRNW,≤ 0.2
12,APGK,≤ 0.2
13,TLRV,≤ 0.2
14,YIGL,≤ 0.2
15,VFNG,≤ 0.2
16,LTCT,≤ 0.2
17,FNHT,≤ 0.2
18,IKCW,≤ 0.2
19,QKFF,≤ 0.2
20,HFME,≤ 0.2
21,GPRN,≤ 0.2
22,KKDH,≤ 0.2
23,IASS,≤ 0.2
24,VYLR,≤ 0.2

row,Variant,one-hybrid fitness for binding parS DNA
1,RWCL,≤ 0.2
2,NHSI,≤ 0.2
3,SQSR,≤ 0.2
4,YCKL,≤ 0.2
5,GAEV,≤ 0.2
6,MDSV,≤ 0.2
7,PTPE,≤ 0.2
8,HRFD,≤ 0.2
9,SLSD,≤ 0.2
10,KNLC,≤ 0.2
11,KPHT,≤ 0.2
12,NNTW,≤ 0.2
13,IVSS,0.205
14,QLLS,≤ 0.2
15,EFMW,≤ 0.2
16,VVPG,≤ 0.2
17,SCYP,≤ 0.2
18,RLNV,≤ 0.2
19,KMRL,≤ 0.2
20,GSLN,≤ 0.2
21,ITNA,≤ 0.2
22,NTLM,≤ 0.2
23,RYPV,≤ 0.2
24,LQAS,≤ 0.2

row,Variant,one-hybrid fitness for binding parS DNA
1,PLLA,≤ 0.2
2,FTDL,≤ 0.2
3,TVVS,≤ 0.2
4,SKCT,≤ 0.2
5,ASKA,≤ 0.2
6,QYGC,≤ 0.2
7,SSCF,≤ 0.2
8,ISKC,≤ 0.2
9,PGKH,≤ 0.2
10,LRLS,≤ 0.2
11,NNDR,≤ 0.2
12,QAAC,≤ 0.2
13,IQPF,≤ 0.2
14,AWSD,≤ 0.2
15,GNLM,≤ 0.2
16,ILES,≤ 0.2
17,PWHS,≤ 0.2
18,EAIC,≤ 0.2
19,LDYL,≤ 0.2
20,QFNM,≤ 0.2
21,NWAG,≤ 0.2
22,ASEA,≤ 0.2
23,RYEF,0.236
24,LSQI,≤ 0.2

row,Variant,one-hybrid fitness for binding parS DNA
1,HNLM,≤ 0.2
2,QWMT,≤ 0.2
3,DHHF,≤ 0.2
4,DLRA,≤ 0.2
5,SDNR,≤ 0.2
6,LVGP,≤ 0.2
7,CGVG,≤ 0.2
8,YVMV,≤ 0.2
9,TSNT,≤ 0.2
10,KSMH,≤ 0.2
11,RSRE,≤ 0.2
12,TLWG,≤ 0.2
13,HAGS,≤ 0.2
14,HLSW,≤ 0.2
15,GVPY,≤ 0.2
16,MDCE,≤ 0.2
17,VGSM,≤ 0.2
18,SKEK,≤ 0.2
19,EFPC,≤ 0.2
20,PSRM,≤ 0.2
21,EQQS,≤ 0.2
22,RNTQ,≤ 0.2
23,TRGG,≤ 0.2
24,GILP,≤ 0.2

row,Variant,one-hybrid fitness for binding parS DNA
1,HYAR,≤ 0.2
2,QAHE,≤ 0.2
3,ASNL,≤ 0.2
4,QICR,≤ 0.2
5,GERF,≤ 0.2
6,AKRK,≤ 0.2
7,PQKL,≤ 0.2
8,QCRD,≤ 0.2
9,LMKG,≤ 0.2
10,YETE,≤ 0.2
11,MLDC,≤ 0.2
12,NIRD,≤ 0.2
13,PKFG,≤ 0.2
14,GRYC,≤ 0.2
15,RWRV,≤ 0.2
16,TCTC,≤ 0.2
17,AVNT,≤ 0.2
18,ILCC,≤ 0.2
19,MVVV,≤ 0.2
20,YGPS,≤ 0.2
21,DGKN,≤ 0.2
22,QVCL,≤ 0.2
23,CRKG,≤ 0.2
24,STTR,≤ 0.2

row,Variant,one-hybrid fitness for binding parS DNA
1,LPYD,≤ 0.2
2,GMCV,≤ 0.2
3,RDIV,≤ 0.2
4,RHEG,0.898
5,TKYL,≤ 0.2
6,PAHH,≤ 0.2
7,PHPD,≤ 0.2
8,ADSW,≤ 0.2
9,SNRA,≤ 0.2
10,RFEE,≤ 0.2
11,NDKG,≤ 0.2
12,KYIG,≤ 0.2
13,SIRL,≤ 0.2
14,YTYS,≤ 0.2
15,CLNL,≤ 0.2
16,DPIS,≤ 0.2
17,GAVS,≤ 0.2
18,DRLY,≤ 0.2
19,CMHK,≤ 0.2
20,EVAL,≤ 0.2
21,HVMC,≤ 0.2
22,SFDD,≤ 0.2
23,CNKG,≤ 0.2
24,RKNQ,≤ 0.2

row,Variant,one-hybrid fitness for binding parS DNA
1,ETVT,≤ 0.2
2,TNQL,≤ 0.2
3,QLCG,≤ 0.2
4,KICG,≤ 0.2
5,SMVI,≤ 0.2
6,IILT,≤ 0.2
7,TFSL,≤ 0.2
8,KTPL,≤ 0.2
9,YMVA,≤ 0.2
10,RMRL,≤ 0.2
11,EVTG,≤ 0.2
12,ASWY,≤ 0.2
13,EGCG,≤ 0.2
14,ECFS,≤ 0.2
15,QNLY,≤ 0.2
16,TKGS,≤ 0.2
17,PPEL,≤ 0.2
18,KLNK,≤ 0.2
